# Assay results reported in PubChem BioAssay AID686970 (National Center for Advancing Translational Sciences (NCATS), 2013).
# The campaign covered roughly 360,000 compounds. About 6,000 (1.7%) were called active. Inconclusive results, whose numbers are uncertain, are shown with a selection of clear calls. Calls follow the shape of the dose curve; as a rule, active = well fitted cell-killing curve with a large enough effect; inconclusive = small, poorly fitted or top-dose-only effect, or effect the other way; inactive = flat fitted curve, though single readings scatter. No potency is given beside an inconclusive call; the fits are too rough.
# Assay: qHTS for induction of synthetic lethality in tumor cells producing 2HG: qHTS for the HT-1080-NT fibrosarcoma cell line;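 also: NT is the 2HG producing partner of a matched IDH1 knockdown line; nearly all actives have a fitted effect of over 55% in size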;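 as to activity, negative = less viability: 0% = DMSO-treated cells and -100% = media-only wells without cells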
# Settings: HT-1080-NT fibrosarcoma viability, CellTiter-Glo ATP luminescence, 48 h; activity, negative = less viability: at 46.1 µM (top of the series) unless noted
# How it was run: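 Read-out is CellTiter-Glo luminescence after 10 minutes at room temperature, following 48 hours' compound treatment of HT-1080-NT cells (750 cells/well, RPMI, 5% FBS, 37 degrees C).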
# Potency is read from the fitted curve at half-maximal effect; tags tell the direction and shape of the fitted curve.
SMILES,"activity, negative = less viability",Potency
CNS(=O)(=O)c1cccc(C(=O)OCC(=O)/C=C2/N(C)c3ccccc3C2(C)C)c1,inactive: -17.7%,–
COCCCNC(=S)N/N=C/c1cccc(OC)c1O,inconclusive: -30.6% [cytotoxic],–
Cc1cc(C)n(-c2nc(N(C)C)nc(N(C)C)n2)n1,–,active: 7.08 µM
O=C1/C(=C/c2c[nH]c3ccccc23)CCC/C1=C\c1c[nH]c2ccccc12,–,"inconclusive [cytotoxic, single point]"
O=C1OC(Nc2nc(-c3ccc(F)cc3)cs2)c2ccccc21 (centres undefined),–,"inconclusive [cytotoxic, single point]"
Nc1sc(-c2ccccc2)cc1-c1n[nH]c(=S)n1C1CCCCC1,–,active: 3.66 µM
Clc1ccc(-n2nnnc2SCc2c(-c3ccccc3)nc3sccn23)cc1,–,"inconclusive [cytotoxic, single point]"
CN(C)CCCNC(=O)C[C@H]1C[C@H](C(=O)N2CCCCC2)[C@@]2(CCc3ccccc3)c3[nH]c4cc(-c5ccco5)ccc4c3CCN2C1=O,–,active: 25.9 µM
COc1ccc(-c2cc(C(=O)NCCCn3ccnc3)c3ccccc3n2)c(OC)c1,inactive: -17.6%,–
O=C(CNC(=O)c1ccccc1)OC(C(=O)O)c1ccc(F)cc1 (centres undefined),inactive: 15%,–
CCOc1cccc(CN(C)CC2CCCN(CCc3ccc(Cl)cc3)C2)c1O (centres undefined),–,"inconclusive [cytotoxic, single point]"
C/C(=N\NC(=O)CSCc1ccc([N+](=O)[O-])cc1)c1ccccc1O,inactive: -5.21%,–
O=C(O)c1ccc(NC2=C/C(=N/S(=O)(=O)c3ccccc3)c3ccccc3C2=O)cc1,–,active: 4.11 µM
CC1=C(N2CCOCC2)CCC1=O,inactive: -0.986%,–
CCCCC(=NCCc1c(C)[nH]c2ccccc12)C1=C(O)CC(c2ccccc2)CC1=O (centres undefined),–,"inconclusive [cytotoxic, single point]"
C[C@H](CO)N1C[C@H](C)[C@@H](CN(C)Cc2ccc(-c3ccccc3)cc2)Oc2c(NS(=O)(=O)c3ccc(F)cc3)cccc2C1=O,–,"inconclusive [cytotoxic, single point]"
FC(F)C(F)(F)C(F)(F)C(F)(F)c1cc(-c2ccccc2)n[nH]1,–,"inconclusive [cytotoxic, single point]"
CCN(CC)CCn1c(=S)[nH]c2cc(C(=O)N3CC(C)CC(C)C3)ccc2c1=O (centres undefined),inactive: 2.22%,–
CC(C)(C)c1ccc(CC(=O)N2CCC2(C)C(=O)Nc2cccc3cccnc23)cc1 (centres undefined),–,"inconclusive [cytotoxic, single point]"
Cc1cc(C)c2sc(N(CCCN(C)C)C(=O)COc3ccc(Cl)cc3)nc2c1,–,"inconclusive [cytotoxic, single point]"
O/N=C(/c1ccccc1)c1cc2cc(Br)cc(Br)c2o1,–,"inconclusive [cytotoxic, single point]"
Cc1ccc(/C=C/c2nc3ccccc3[nH]2)o1,–,"inconclusive [cytotoxic, single point]"

SMILES,"activity, negative = less viability",Potency
O=C1NC[C@@H](CCCCN2CCN(CCc3ccccc3)C(=O)C2=O)N(CCC2CCCCC2)C1=O,inactive: 17.2%,–
O=C1CC[C@@H](O)CCN1CC[C@H](Sc1ccccc1)c1ccccc1,inactive: -15%,–
CC(C)(C)c1ccc(S(=O)(=O)N2CCC(O)(c3ccc(Cl)cc3)CC2)cc1,–,"inconclusive [cytotoxic, single point]"
COc1ccccc1NS(=O)(=O)c1ccc(C(=O)N2CCN(c3ccccn3)CC2)cc1,inactive: 6.86%,–
COc1ccc(/C=N/Nc2cc(C)nc3ccc(Br)cc23)cc1,–,active: 7.31 µM
OC1CCCN(Cc2c3ccccc3cc3ccccc23)C1 (centres undefined),–,"inconclusive [cytotoxic, single point]"
Cc1ccc(Cc2c(C3CCCCC3)nc3ccc(Cl)cn23)cc1,–,"inconclusive [cytotoxic, single point]"
CCc1nc(SCC(=O)Nc2cc(OC)ccc2OC)c2c(C)c(C)sc2n1,–,"inconclusive [cytotoxic, partial curve]"
COc1ccc(-c2nn(-c3ccccc3)cc2/C=N/N2C(=O)CSC2=S)cc1,inactive: 25.5%,–
COC(=O)[C@@]12C[C@@H](CC(=O)NCc3cccs3)C(=O)N(Cc3cccc4ccccc34)C1=CCC(C)(C)C2,–,"inconclusive [cytotoxic, single point]"
COc1ccc(CNCC(O)(c2ccc(F)cc2)c2ccc(F)cc2)cc1OC,–,"inconclusive [cytotoxic, partial curve]"
Cc1ccc(C2=NN(C(=O)CCl)C(c3ccco3)C2)o1 (centres undefined),–,active: 6.51 µM
CCOc1cc(/C=N/NC(=O)CCn2nnc3ccccc32)ccc1O,–,"inconclusive [rising, single point]"
CC(=O)N/N=C(\C)CCc1ccccc1,–,"inconclusive [rising, single point]"
CCCCCNC(=O)C1CCC(Cn2c(=S)[nH]c3ccccc3c2=O)CC1 (centres undefined),inactive: -0.347%,–
COc1cccc(C(=O)Oc2c(Br)cc(Br)cc2/C=N/NC(=O)c2cc(C)[nH]n2)c1,–,"inconclusive [cytotoxic, single point]"
Oc1cccc(NC(=S)N=Nc2c(O)[nH]c3ccc(Br)cc23)c1,–,"inconclusive [cytotoxic, partial curve]"
CCOc1ccc(NC(=O)CN(C)C(=O)Cc2ccc3c(c2)OCCO3)cc1OCC,inactive: -2.87%,–
CCOC1=C2[C@@H](CN(S(=O)(=O)c3ccc(C)cc3)[C@H]2c2ccccc2)[C@H]2C(=O)N(c3ccccc3)C(=O)[C@H]2C1,–,"inconclusive [rising, single point]"
CCN1CCN(c2cc(C)c3cc(NC(=O)CCC(=O)N4CCN(c5ccccc5OC)CC4)ccc3n2)CC1,–,"inconclusive [cytotoxic, single point]"
Cc1cc(F)ccc1S(=O)(=O)Nc1ccccc1C(=O)Nc1ccccc1N1CCOCC1,–,"inconclusive [cytotoxic, single point]"
COc1ccc(-c2cn(/N=C/c3ccc(Cl)cc3Cl)c(N)n2)cc1,–,"inconclusive [cytotoxic, single point]"
